Laboratory results as given in PubChem BioAssay AID1476 (National Center for Advancing Translational Sciences (NCATS), 2009).
Screen size: about 200,000 compounds; about 4,500 (2.2%) were called active. Inconclusive means that the source gave no clear call. Such entries were picked first, then a sample of the others. Calls follow the shape of the dose curve; as a rule, active = well fitted inhibition curve with a large enough effect; inconclusive = small, poorly fitted or top-dose-only effect, or effect the other way; inactive = flat fitted curve, though single readings scatter. Potencies of inconclusive entries are doubtful fits and often do not repeat.

biological target: Cruzipain (Trypanosoma cruzi) (UniProt P25779); test: qHTS Assay for Promiscuous and Specific Inhibitors of Cruzain (without detergent); details: purified cruzain, Z-FR-AMC fluorescence, no detergent; also: nearly all actives have a fitted effect of over 40% in size;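 as to max response, negative = inhibition: plate controls were enzyme without inhibitor for no effect and buffer without enzyme for full effect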
How it was run: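 Detergent-free condition (0.00005% Triton X-100) in acetate buffer pH 5.5 with DTT. 1.5 nM enzyme and compound were pre-mixed 15 min, then 2 uM Z-FR-AMC substrate added; reaction progress from fluorescence change between first and third reads (60 s).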
Potency is read from the fitted curve at half-maximal effect; tags tell the direction and shape of the fitted curve.

Chain of UniProt P25779 (P25779 whole entry, looked up): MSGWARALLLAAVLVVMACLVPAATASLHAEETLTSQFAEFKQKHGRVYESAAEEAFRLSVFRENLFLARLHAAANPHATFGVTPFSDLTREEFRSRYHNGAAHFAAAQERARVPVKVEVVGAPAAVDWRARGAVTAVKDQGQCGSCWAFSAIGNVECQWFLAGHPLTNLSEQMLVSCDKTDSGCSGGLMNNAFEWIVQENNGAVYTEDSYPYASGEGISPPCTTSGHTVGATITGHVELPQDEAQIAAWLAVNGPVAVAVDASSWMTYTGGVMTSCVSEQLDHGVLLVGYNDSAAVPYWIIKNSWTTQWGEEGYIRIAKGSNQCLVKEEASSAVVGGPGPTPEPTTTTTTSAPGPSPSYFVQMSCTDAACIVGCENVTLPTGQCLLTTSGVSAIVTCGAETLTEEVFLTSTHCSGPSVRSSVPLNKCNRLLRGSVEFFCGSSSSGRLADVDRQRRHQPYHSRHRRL

`CC(C)(C)NC(=O)CN(C(=O)CS(=O)CC(=O)Nc1ccc(F)cc1)c1ccc(Cl)cc1` (stereo not given) was tested. Which Potency did it give?
The Potency was inconclusive: 39.8 µM [activator, single point].

Which Potency does the source give for `COc1cccc(-c2nn(-c3ccccc3)cc2/C=C\C(=O)c2cccs2)c1` here?
The Potency was active: 12.6 µM.

With `CC1CN(c2nc3ccccn3c(=O)c2/C=C(\C#N)S(=O)(=O)c2ccccc2)CC(C)O1` (stereo not given) as the compound, how does the Potency read?
The Potency was inconclusive: 25.1 µM [activator, single point].

With `O=C(c1ccccc1)C1CN(c2ccccc2)CC1c1ccc(Cl)cc1` (stereo not given) as the compound, how does the Potency read?
The Potency was inconclusive: 39.8 µM [inhibitor, single point].

How did the Potency turn out when `CCn1c(C(=O)Nc2cc(C)cc(C)c2)cc2sc(Cl)cc21` was run?
The Potency was inconclusive: 3.98 µM [activator, single point].

With `O=C(NCc1ccccn1)c1ccc(=O)oc1` as the compound, how does the max response, negative = inhibition read?
The max response, negative = inhibition was inactive: -16.8%.

For `Nc1c(C(=O)NCCc2ccccc2)c2nc3ccccc3nc2n1CCN1CCOCC1`, which Potency is on record?
The Potency was inconclusive: 20 µM [activator, partial curve].

With `COc1ccc(S(=O)(=O)n2nc(OC(=O)c3c(-c4ccccc4Cl)noc3C)cc2N)cc1` as the compound, how does the Potency read?
The Potency was inconclusive: 31.6 µM [inhibitor, single point].

With `CCN(C(=O)Cn1nc(Cc2cccnc2)c2ccccc2c1=O)c1cc(C)ccc1C` as the compound, how does the max response, negative = inhibition read?
The max response, negative = inhibition was inactive: 3.41%.

Which max response, negative = inhibition does the source give for `COc1ccc(C(=O)N2CCC(C(=O)Nc3ccc(OC)cc3OC)CC2)cc1` here?
The max response, negative = inhibition was inactive: -7.51%.

`CCN(C(=O)COC(=O)c1cc(-c2ccccc2)nc2c1c(C)nn2-c1ccccc1)C1CCS(=O)(=O)C1` (stereo not given) was tested. Which Potency did it give?
The Potency was inconclusive: 12.6 µM [activator, partial curve].

`CCOc1ccc(C2Nc3ccc4ccccc4c3-c3c2c(=O)oc2ccccc32)cc1` (stereo not given) was tested. Which Potency did it give?
Its Potency is active: 7.94 µM.

`CCOC(=O)c1c(NC(=S)NCCc2ccccc2)sc2c1CC(C(C)C)OC2` (stereo not given) was tested. Which Potency did it give?
Its Potency is inconclusive: 39.8 µM [inhibitor, single point].

For `Cc1ccc(C(=O)Nc2nc3ccccc3c(=O)s2)cc1`, which Potency is on record?
Its Potency is inconclusive: 25.1 µM [inhibitor, single point].

Which Potency does the source give for `O=C(NCCSc1c(-c2ccc(Br)cc2)[nH]c2ccccc12)c1ccc(S(=O)(=O)N2CCOCC2)cc1` here?
Its Potency is inconclusive: 39.8 µM [inhibitor, single point].

For `O=c1cc(-c2ccccc2Cl)oc2cc(O)cc(O)c12`, which max response, negative = inhibition is on record?
The max response, negative = inhibition was inactive: -5.4%.

Which Potency does the source give for `COc1cc(OC)nc(NC(=O)CSc2nc3ccccc3o2)n1` here?
The Potency was inconclusive: 0.316 µM [inhibitor, partial curve].

With `CC(=O)NC(Cc1c[nH]c2ccccc12)C(=O)OCC(=O)Nc1cc(C)on1` (stereo not given) as the compound, how does the max response, negative = inhibition read?
Its max response, negative = inhibition is inactive: -1.14%.

`COC(=O)c1c(-c2cccs2)csc1NC(=O)c1cc(OC)cc(OC)c1` was tested. Which max response, negative = inhibition did it give?
Its max response, negative = inhibition is inactive: -4.97%.

`c1ccn2c(c1)nc1c2nc2ccccn21` was tested. Which Potency did it give?
Its Potency is inconclusive: 31.6 µM [inhibitor, single point].

How did the Potency turn out when `O=C(CSc1ncnc2scc(-c3ccc(F)cc3)c12)c1ccc2c(c1)OCCO2` was run?
Its Potency is inconclusive: 39.8 µM [inhibitor, single point].

With `O=C(C1=NN(c2ccccc2)C2C(=O)N(c3ccc(Cl)cc3)C(=O)C12)c1ccccc1` (stereo not given) as the compound, how does the Potency read?
Its Potency is active: 10 µM.

Which Potency does the source give for `Cn1c2c(c(=O)n(C)c1=O)C(c1ccccc1Cl)CC(=O)N2` (stereo not given) here?
The Potency was inconclusive: 39.8 µM [inhibitor, single point].

Which max response, negative = inhibition does the source give for `CC(C)(C)NC(=O)C(Cc1ccccc1)NS(=O)(=O)c1cccc2nsnc12` (stereo not given) here?
The max response, negative = inhibition was inactive: 4.1%.

With `CC(C)N1CCc2c(sc(N)c2C#N)C1` as the compound, how does the Potency read?
Its Potency is inconclusive: 31.6 µM [inhibitor, single point].

For `Cc1ccc(/C=C/C(=O)c2c(C)nc3ccccn23)cc1`, which Potency is on record?
The Potency was inconclusive: 39.8 µM [activator, single point].

For `Cc1ccc(NC(=O)NC(=O)COc2ccc(Cl)cc2Cl)c(C)c1`, which Potency is on record?
Its Potency is active: 12.6 µM.

For `Cc1cc(C)c2oc(C(=O)Nc3c(C(=O)c4ccc(F)cc4)oc4ccccc34)cc(=O)c2c1`, which Potency is on record?
Its Potency is inconclusive: 0.199 µM [activator, single point].

`O=C(Nc1nnc(C2CC2)s1)c1ccc(S(=O)(=O)c2ccccc2)cc1` was tested. Which Potency did it give?
Its Potency is inconclusive: 25.1 µM [inhibitor, single point].

With `Cc1ccc(C)c(CN2C(=O)c3ccccc3Sc3ccc(C(=O)NCc4ccco4)cc32)c1` as the compound, how does the Potency read?
The Potency was inconclusive: 31.6 µM [inhibitor, single point].

How did the Potency turn out when `Cc1cc(Cl)c(S(=O)(=O)Nc2ccccn2)cc1OCC(N)=O` was run?
Its Potency is inconclusive: 0.794 µM [inhibitor, partial curve, poor fit].

For `O=C(Nc1ccccc1N1CCN(C(=O)c2ccc(Cl)cc2)CC1)c1cc2ccccc2o1`, which Potency is on record?
Its Potency is inconclusive: 39.8 µM [inhibitor, single point].

Which Potency does the source give for `COc1ccc(NS(=O)(=O)c2cc(NC(=O)c3cnc(C)cn3)ccc2N2CCCC2)cc1` here?
The Potency was inconclusive: 39.8 µM [activator, single point].

`O=C(O)[C@H]1[C@H](C(=O)O)[C@H](C(=O)O)C[C@@H]1C(=O)O` was tested. Which max response, negative = inhibition did it give?
The max response, negative = inhibition was inactive: 14.8%.

For `COc1ccc(C(=O)N2CCC3(CCCN(Cc4cc(C(F)(F)F)cc(C(F)(F)F)c4)C3)CC2)cc1`, which max response, negative = inhibition is on record?
Its max response, negative = inhibition is inactive: 19.6%.

With `COc1ccc(N2CCN(S(=O)(=O)c3ccc(-c4cc(C(F)(F)F)on4)s3)CC2)cc1` as the compound, how does the max response, negative = inhibition read?
Its max response, negative = inhibition is inactive: -7.04%.

`CC1CCN(S(=O)(=O)c2ccc(S(=O)(=O)NCC3COCCO3)cc2)CC1` (stereo not given) was tested. Which Potency did it give?
The Potency was inconclusive: 31.6 µM [activator, single point].

With `Cc1cc(S(=O)(=O)Nc2cccc(-c3ccc(N4CCOCC4)nn3)c2)c(C)cc1Cl` as the compound, how does the Potency read?
Its Potency is inconclusive: 39.8 µM [activator, single point].

How did the max response, negative = inhibition turn out when `Cc1ccc2c(c1)C(c1ccc(F)cc1)N(C(=O)C(C)C)CC(=O)N2` (stereo not given) was run?
Its max response, negative = inhibition is inactive: -2.83%.

For `Cc1cccc(Nc2ccccc2C(=O)OCC(=O)N2CCOCC2)c1C`, which Potency is on record?
The Potency was inconclusive: 39.8 µM [activator, single point].

Which max response, negative = inhibition does the source give for `CCOc1ccc(NC(=O)Cn2nnc(C(=O)OC)c2C(=O)OC)cc1` here?
Its max response, negative = inhibition is inactive: -8.38%.

`CCCCN(CCCC)c1nc(OC)nc(-n2nnc(C(C)=O)c2C)n1` was tested. Which Potency did it give?
The Potency was inconclusive: 39.8 µM [activator, single point].

Which max response, negative = inhibition does the source give for `Cc1ccc(C(=O)NCC(=O)OCc2cc(=O)n3nc(C4CCCCC4)sc3n2)cc1` here?
Its max response, negative = inhibition is inactive: 9.08%.

`Cc1ccc(-n2nnnc2SCC(=O)c2ccc3c(c2)NC(=O)CO3)c(C)c1` was tested. Which max response, negative = inhibition did it give?
Its max response, negative = inhibition is inactive: -0.27%.

Which Potency does the source give for `COc1ccccc1NC(=O)CN1CCC(n2c(C)nc3cc(F)ccc32)CC1` here?
The Potency was inconclusive: 39.8 µM [activator, single point].

How did the Potency turn out when `COc1ccc(Cn2c(SCC(=O)NCc3ccccc3)nc3ccccc32)cc1` was run?
The Potency was inconclusive: 15.8 µM [activator, partial curve].

With `CN(C)/N=C/c1ccc(Sc2ccc([N+](=O)[O-])cc2[N+](=O)[O-])o1` as the compound, how does the Potency read?
The Potency was inconclusive: 39.8 µM [inhibitor, single point].

With `CC(/C=C/c1ccc(OCc2ccccc2)cc1)=N\O` as the compound, how does the Potency read?
Its Potency is inconclusive: 39.8 µM [inhibitor, single point].

How did the max response, negative = inhibition turn out when `Cc1cc(C)cc(N2C(=O)CC(c3ccc(C(F)(F)F)cc3)C3=C2COC3=O)c1` (stereo not given) was run?
The max response, negative = inhibition was inactive: 0.377%.

Which Potency does the source give for `COc1ccccc1C(=O)Nc1cc(-c2cccc(Br)c2)nn1-c1ccccc1` here?
Its Potency is inconclusive: 6.31 µM [inhibitor, single point].

With `COc1ccccc1N1CCN(C(c2cc3ccc(C)cc3[nH]c2=O)c2nnnn2C2CCCC2)CC1` (stereo not given) as the compound, how does the Potency read?
Its Potency is inconclusive: 25.1 µM [activator, single point].

With `CCOc1cc(CNC(=O)c2ccc(NC(=O)c3nsc4ccccc34)cc2)ccc1OC` as the compound, how does the Potency read?
Its Potency is inconclusive: 31.6 µM [activator, single point].

How did the Potency turn out when `COc1ccccc1N1CCN(C(=O)COc2ccc(Cl)cc2)CC1` was run?
The Potency was inconclusive: 31.6 µM [activator, single point].

For `CC[C@H](C)[C@H](NC(=O)[C@H](Cc1ccc(O)cc1)NC(=O)[C@@H](N)C(C)C)C(=O)N[C@@H](Cc1cnc[nH]1)C(=O)N1CCC[C@H]1C(=O)N[C@@H](Cc1ccccc1)C(=O)O`, which Potency is on record?
Its Potency is active: 15.8 µM.

How did the Potency turn out when `O=C(/C=C/c1ccc(F)cc1)NC(=S)Nc1ccccc1C(=O)NC1CCCCC1` was run?
The Potency was inconclusive: 31.6 µM [inhibitor, single point].

With `COc1ccccc1CC(=O)Nc1ccc(-c2noc(COc3ccc(Cl)c(C)c3)n2)cc1` as the compound, how does the Potency read?
The Potency was active: 25.1 µM.

Which Potency does the source give for `CC/C(=N/Nc1cccc(C)c1)c1cnnc(SC)n1` here?
Its Potency is inconclusive: 31.6 µM [inhibitor, single point].

With `COc1ccc(OCC(=O)Nc2sc3c(c2C(=O)NCC2CCCO2)CCC3)cc1` (stereo not given) as the compound, how does the Potency read?
The Potency was inconclusive: 39.8 µM [activator, single point].

With `CCOC(=O)C1Oc2ccccc2C(c2ccccc2)=C1C(C)=O` (stereo not given) as the compound, how does the max response, negative = inhibition read?
The max response, negative = inhibition was inactive: -0.343%.

How did the Potency turn out when `COC(=O)c1c(C)[nH]c(C)c1C(=O)c1ccccc1Cc1ccccc1` was run?
Its Potency is inconclusive: 39.8 µM [activator, single point].

Which Potency does the source give for `COc1cccc(CNC(=O)Cn2nc(N3CCN(c4ccccc4OC)CC3)ccc2=O)c1` here?
The Potency was inconclusive: 25.1 µM [activator, single point].

For `Cc1ccccc1NC(=O)c1ccc(Nc2c([N+](=O)[O-])cc([N+](=O)[O-])c3ccccc23)cc1`, which Potency is on record?
Its Potency is active: 31.6 µM.

`Cc1nn(C)c(C)c1S(=O)(=O)N(CC(=O)N1CCc2ccccc2C1)c1ccc(C(C)C)cc1` was tested. Which Potency did it give?
Its Potency is inconclusive: 25.1 µM [activator, partial curve].

With `CC(C)n1nnc2cc(C(=O)O)ccc21` as the compound, how does the max response, negative = inhibition read?
The max response, negative = inhibition was inactive: -5.98%.

How did the Potency turn out when `COC(=O)c1cc2nc(-c3ccc(OC)c(OC)c3)cc(C(F)(F)F)n2n1` was run?
The Potency was inconclusive: 7.94 µM [activator, full curve].
